Assay results as given in publication PMC6212790.
The other results are listed elsewhere or left out. At the low end of the ranking the order means little.
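Note: rank score from −0.5 (least bound) to 0.5 (best bound).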

The sequences below were run against T1, GST-Rok (full length) (UniProt O34857) (assay: protein binding microarray). Details: Rok is a gene silencer of Bacillus subtilis; high values mean tight binding; most listed sequences are background and not binding sites; double strand, one strand shown.
T1 sequence: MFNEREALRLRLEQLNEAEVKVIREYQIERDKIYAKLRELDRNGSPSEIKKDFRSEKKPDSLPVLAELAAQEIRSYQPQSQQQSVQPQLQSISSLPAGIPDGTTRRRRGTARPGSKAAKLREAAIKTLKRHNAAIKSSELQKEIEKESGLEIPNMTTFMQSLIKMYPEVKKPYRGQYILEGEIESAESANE
For CGCCCCAC, the binding signal was -0.433 E-score.
In the case of TCGAGCGA, the binding signal is reported as 0.0435 E-score.
CAATTCAC showed a binding signal of -0.00115 E-score.
Work on AACTTTAG yielded a binding signal of -0.037 E-score.
CGATGTGA showed a binding signal of 0.00829 E-score.
For TGCTACCA, the binding signal was 0.152 E-score.
AAAGTTGC was tested, and the binding signal was 0.0569 E-score.
ACGTAATC showed a binding signal of 0.0324 E-score.
ATCGGTCC was tested, and the binding signal was -0.201 E-score.
AGATCAGA gave a binding signal of 0.156 E-score.
CTAGAATA gave a binding signal of 0.238 E-score.
Sequence AACCTCTT has a binding signal of -0.189 E-score.
In the case of ACCATGGT, the binding signal is reported as 0.0331 E-score.
CGCGCGTA gave a binding signal of 0.073 E-score.
ACCTAGAA was tested, and the binding signal was 0.109 E-score.
With ATCGCTCA the binding signal was -0.135 E-score.
With TGATCCCA the binding signal was -0.0393 E-score.
CTTCTGAA was tested, and the binding signal was -0.211 E-score.
CCTACGAG was tested, and the binding signal was -0.119 E-score.
AATTCGAG showed a binding signal of 0.0847 E-score.
For ACCAGAGC, the binding signal was -0.203 E-score.
AACTAACG was tested, and the binding signal was 0.294 E-score.
With AACATATA the binding signal was 0.257 E-score.
With AACCATGC the binding signal was -0.0502 E-score.
CGATTGTA gave a binding signal of 0.183 E-score.
For CTAGGTGC, the binding signal was 0.0764 E-score.
Sequence CTGCATTC has a binding signal of -0.202 E-score.
ACCAGCCG gave a binding signal of 0.0494 E-score.
Work on ACATGCCC yielded a binding signal of 0.0712 E-score.
With CCCGCCCG the binding signal was -0.355 E-score.
AGCGGCCT showed a binding signal of -0.231 E-score.
GATTTAAC showed a binding signal of 0.168 E-score.
With CGTCTGTC the binding signal was -0.104 E-score.
CACGGACG showed a binding signal of -0.107 E-score.
GCCAGCCA showed a binding signal of -0.303 E-score.
CGCGAGCG was tested, and the binding signal was -0.19 E-score.
ATTAACAG gave a binding signal of 0.0334 E-score.
CAGCGGGA gave a binding signal of -0.23 E-score.
Work on CTAACGCC yielded a binding signal of -0.11 E-score.
Sequence TCTGGGAA has a binding signal of 0.0298 E-score.
Work on GATGCCCA yielded a binding signal of -0.197 E-score.
For CTTTATCA, the binding signal was 0.0437 E-score.
Work on GCCAACGC yielded a binding signal of -0.262 E-score.
GTGTGCTA was tested, and the binding signal was 0.145 E-score.
Sequence AGGCAACA has a binding signal of -0.0653 E-score.
For GAGCGCGA, the binding signal was -0.158 E-score.
AAGCTCAA showed a binding signal of -0.0295 E-score.
GAGTTAAC showed a binding signal of 0.0753 E-score.
Sequence GAGAACGA has a binding signal of 0.0446 E-score.
In the case of AAATTCAA, the binding signal is reported as 0.145 E-score.
Work on CGTATCTA yielded a binding signal of 0.203 E-score.
Sequence CCAAAAGG has a binding signal of -0.25 E-score.
For ACGGAAAT, the binding signal was 0.0416 E-score.
TAGCTAAA showed a binding signal of 0.214 E-score.
With TTAGACAA the binding signal was -0.00469 E-score.
With CGAACTTA the binding signal was 0.108 E-score.
AAAACGAG showed a binding signal of -0.0543 E-score.
CGTTGAGA gave a binding signal of -0.0833 E-score.
Work on CTATGAAA yielded a binding signal of 0.0511 E-score.
For AATATTCG, the binding signal was 0.255 E-score.
CCTGTCCG was tested, and the binding signal was -0.244 E-score.
In the case of GTGGCCCA, the binding signal is reported as -0.282 E-score.
CATGGACG showed a binding signal of -0.172 E-score.
TAATGCGA showed a binding signal of 0.268 E-score.
AGCGATAT gave a binding signal of 0.211 E-score.
GGGCCGAC was tested, and the binding signal was -0.226 E-score.
With TAATCTGA the binding signal was 0.0488 E-score.
CATCAGGG showed a binding signal of -0.0393 E-score.
With GAAAACTA the binding signal was 0.346 E-score.
AAAAATTA showed a binding signal of 0.222 E-score.
With CACTGGGA the binding signal was -0.274 E-score.
AGTTTTGG showed a binding signal of 0.0757 E-score.
Sequence GCCTTCTA has a binding signal of -0.198 E-score.
AAACAGGC gave a binding signal of 0.00493 E-score.
For AATAGATG, the binding signal was 0.261 E-score.
Sequence CCTCAAGA has a binding signal of 0.0118 E-score.
GGACAGTA gave a binding signal of 0.0154 E-score.
GCCTGTTA gave a binding signal of -0.183 E-score.
In the case of ACTACCAA, the binding signal is reported as 0.305 E-score.
ACAAATCT was tested, and the binding signal was 0.191 E-score.
AATCCGTG gave a binding signal of -0.0286 E-score.
TCTGGTCA gave a binding signal of -0.0908 E-score.
ATTCACTG showed a binding signal of 0.0232 E-score.
Sequence CTTGGGCA has a binding signal of -0.266 E-score.
ATAAGCAC was tested, and the binding signal was 0.0885 E-score.
ACTACACA gave a binding signal of 0.201 E-score.
CTTGGCAC showed a binding signal of -0.239 E-score.
CCCTGCAA showed a binding signal of -0.136 E-score.
With CATACCAG the binding signal was -0.0105 E-score.
Work on CCCAGAGG yielded a binding signal of -0.202 E-score.
CCCCACTA gave a binding signal of -0.215 E-score.
With AAGGCCTA the binding signal was -0.148 E-score.
AGACGGAC was tested, and the binding signal was -0.143 E-score.
Work on CCTAGTTA yielded a binding signal of 0.209 E-score.
CTCCGGTA showed a binding signal of -0.0803 E-score.
Sequence AAGTGTCC has a binding signal of -0.0236 E-score.
Work on CTAGCCCC yielded a binding signal of -0.328 E-score.
With ATCATCGA the binding signal was 0.0997 E-score.
With GGGCGGTA the binding signal was -0.0377 E-score.
Sequence CGACATCC has a binding signal of -0.173 E-score.
ATTCCGCA was tested, and the binding signal was -0.027 E-score.
GCGTGGGA gave a binding signal of -0.158 E-score.
For TGCGCGCA, the binding signal was 0.0381 E-score.
AGACGTAG gave a binding signal of 0.069 E-score.
With ATCATAAT the binding signal was 0.225 E-score.
ACCTTGGG was tested, and the binding signal was -0.258 E-score.
For AAGACTAC, the binding signal was 0.119 E-score.
Work on GTTCTTCA yielded a binding signal of -0.00738 E-score.
With AGTTCATA the binding signal was 0.0889 E-score.
Sequence AGCACACC has a binding signal of -0.192 E-score.
In the case of AGGCGATA, the binding signal is reported as -0.0484 E-score.
With TGCACCCA the binding signal was -0.0471 E-score.
CTCCTCAA showed a binding signal of -0.138 E-score.
For AACACTCA, the binding signal was -0.117 E-score.
GCCAGCGC was tested, and the binding signal was -0.144 E-score.
In the case of AAAGGTGT, the binding signal is reported as -0.102 E-score.
In the case of CTGTTGGA, the binding signal is reported as -0.156 E-score.
In the case of AAAGGTCG, the binding signal is reported as -0.231 E-score.
In the case of ATTTAAAT, the binding signal is reported as 0.284 E-score.
With AGCCTACG the binding signal was -0.165 E-score.
For GTGCTACA, the binding signal was 0.06 E-score.
TAGCCAAA was tested, and the binding signal was 0.155 E-score.
TTGGACAA gave a binding signal of -0.00671 E-score.
For CGCCTTAC, the binding signal was -0.136 E-score.
Sequence AACATCAG has a binding signal of 0.188 E-score.
CCACTGCG was tested, and the binding signal was -0.265 E-score.
Work on CCCTTACC yielded a binding signal of -0.244 E-score.
Work on GTGCCAGA yielded a binding signal of -0.263 E-score.
TGCCTAAA gave a binding signal of -0.0428 E-score.
AGCATTAA gave a binding signal of 0.2 E-score.
In the case of TCAGACAA, the binding signal is reported as 0.019 E-score.
Sequence AATCACCG has a binding signal of -0.059 E-score.
GGCTACGA showed a binding signal of -0.273 E-score.
For CTGTTCAA, the binding signal was -0.171 E-score.
For ACGTGCGG, the binding signal was 0.0283 E-score.
In the case of ATACTAGG, the binding signal is reported as 0.225 E-score.
Sequence CAAGCAAG has a binding signal of -0.112 E-score.
AGAAGTTC gave a binding signal of 0.0721 E-score.
Work on ATTCGATG yielded a binding signal of 0.146 E-score.
Sequence AAATTGAA has a binding signal of 0.179 E-score.
AGGATCAG gave a binding signal of -0.0876 E-score.
Sequence AACGGCCT has a binding signal of -0.354 E-score.
CTAGACAA gave a binding signal of 0.122 E-score.
Sequence ACATAATC has a binding signal of 0.237 E-score.
With GAGATGTA the binding signal was 0.141 E-score.
For ATCTTGCA, the binding signal was 0.176 E-score.
AGAAGACA showed a binding signal of 0.0759 E-score.
AAGACAAA was tested, and the binding signal was -0.0369 E-score.
For GTTTACGA, the binding signal was -0.0647 E-score.
AACGACTT was tested, and the binding signal was 0.0518 E-score.
For AATTAGAA, the binding signal was 0.202 E-score.
For ACTTACAA, the binding signal was 0.176 E-score.
Work on AGGGTGTC yielded a binding signal of 0.0132 E-score.
Work on CCTTAATA yielded a binding signal of 0.108 E-score.
AGGCAGGG gave a binding signal of -0.289 E-score.
Work on CTCGGACA yielded a binding signal of -0.0506 E-score.
Work on AATGCGAC yielded a binding signal of 0.00857 E-score.
With CGTAGTGA the binding signal was 0.191 E-score.
Sequence ATACTTAC has a binding signal of 0.212 E-score.
TCAAGTCA gave a binding signal of -0.0697 E-score.
With AACGGCCA the binding signal was -0.116 E-score.
ACCGTGAC showed a binding signal of 0.0309 E-score.
GTTAAGCA gave a binding signal of -0.062 E-score.
For AACCTACG, the binding signal was 9.3e-05 E-score.
ACTGATCC showed a binding signal of 0.0532 E-score.
ATGATGCA was tested, and the binding signal was 0.0452 E-score.
With CATACATA the binding signal was 0.366 E-score.
In the case of GATACCAC, the binding signal is reported as -0.00878 E-score.
Work on GAGTTGTA yielded a binding signal of 0.272 E-score.
With ACATGAAC the binding signal was 0.0571 E-score.
Sequence TTGATAAA has a binding signal of 0.0496 E-score.
Work on TAGAGGGA yielded a binding signal of -0.275 E-score.
